Measured values published in the supplement of paper PMC10126150.
Sequences with one replicate were seen in a single cluster, so their values are uncertain.

The sequences below were run on ATP (assay: switch fluorescence ratio, 500 uM ATP over buffer (Cy3 cluster intensity, sum of 5 cycles each) (fold (ratio)); higher = stronger signal-on switching upon ATP binding; sequences stand for … in TCGTCGGCAGCGTCAGATGTGTATAAGAGACAGTTTTTTTTTTTTTTTTTTTTTTTTT…TC). Conditions: aptamer strand: ATP DNA aptamer (quencher-CACCTGGGGGAGTATTGCGGAGGAAGG + anchor), 100 nM annealed; ATP concentration: 500 uM; one replicate.
Procedure, shortened: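 Switching-strand clusters labelled with Cy3 on a modified Illumina MiSeq flow-cell were annealed to 100 nM quencher-labelled ATP aptamer, imaged in selection buffer, and re-imaged after 15 min with 500 uM ATP at 22 °C. This was done over five cycles with NaOH stripping and re-annealing in between. The fluorescence ratio is summed target-cycle over summed buffer-cycle Cy3 intensity per cluster, averaged per switch-domain sequence, excluding clusters outside 100-1000 RFU.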
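Further: ATP exposure 15 min at 22 °C before imaging.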

**Q.** For TTACGCAACG, which switch fluorescence ratio is on record?
**A.** 1.39

**Q.** For TTACGCATA, which switch fluorescence ratio is on record?
**A.** 1.93

**Q.** Which switch fluorescence ratio does the source give for TTACGGAAAA here?
**A.** 1.35

**Q.** How did the switch fluorescence ratio turn out when TTACGGAGGA was run?
**A.** 0.983

**Q.** TTACGGCAAT was tested. Which switch fluorescence ratio did it give?
**A.** 1.68

**Q.** TTACGGTTTG was tested. Which switch fluorescence ratio did it give?
**A.** 1

**Q.** TTACGTTATC was tested. Which switch fluorescence ratio did it give?
**A.** 3.39

**Q.** Which switch fluorescence ratio does the source give for TTACTATA here?
**A.** 1.14

**Q.** How did the switch fluorescence ratio turn out when TTACTCAGAT was run?
**A.** 1.02

**Q.** TTACTCAGGA was tested. Which switch fluorescence ratio did it give?
**A.** 1.1

**Q.** With TTACTCGACA as the sequence, how does the switch fluorescence ratio read?
**A.** 1.12

**Q.** How did the switch fluorescence ratio turn out when TTACTCGCCC was run?
**A.** 1.25

**Q.** Which switch fluorescence ratio does the source give for TTACTGCGCG here?
**A.** 0.971

**Q.** Which switch fluorescence ratio does the source give for TTACTGGAAA here?
**A.** 1.02

**Q.** For TTACTGTCTG, which switch fluorescence ratio is on record?
**A.** 1.01

**Q.** With TTACTTCCT as the sequence, how does the switch fluorescence ratio read?
**A.** 1.04

**Q.** Which switch fluorescence ratio does the source give for TTACTTTGTG here?
**A.** 0.992

**Q.** With TTAGAAACAT as the sequence, how does the switch fluorescence ratio read?
**A.** 1.11

**Q.** How did the switch fluorescence ratio turn out when TTAGAAGGTC was run?
**A.** 0.974

**Q.** Which switch fluorescence ratio does the source give for TTAGAATAAG here?
**A.** 0.951

**Q.** Which switch fluorescence ratio does the source give for TTAGAATGG here?
**A.** 0.974

**Q.** TTAGACGATG was tested. Which switch fluorescence ratio did it give?
**A.** 1.04

**Q.** Which switch fluorescence ratio does the source give for TTAGACGTGT here?
**A.** 0.983

**Q.** With TTAGACTATG as the sequence, how does the switch fluorescence ratio read?
**A.** 1.01

**Q.** With TTAGAGAATG as the sequence, how does the switch fluorescence ratio read?
**A.** 1.02

**Q.** How did the switch fluorescence ratio turn out when TTAGAGACGG was run?
**A.** 1.04

**Q.** With TTAGAGCGAT as the sequence, how does the switch fluorescence ratio read?
**A.** 4.03

**Q.** How did the switch fluorescence ratio turn out when TTAGAGTAAA was run?
**A.** 0.977

**Q.** For TTAGAGTTCA, which switch fluorescence ratio is on record?
**A.** 0.975

**Q.** TTAGATGACG was tested. Which switch fluorescence ratio did it give?
**A.** 0.916

**Q.** For TTAGCAACTA, which switch fluorescence ratio is on record?
**A.** 1.33

**Q.** With TTAGCACCGA as the sequence, how does the switch fluorescence ratio read?
**A.** 1.1

**Q.** Which switch fluorescence ratio does the source give for TTAGCACTTG here?
**A.** 0.971

**Q.** Which switch fluorescence ratio does the source give for TTAGCAGTGG here?
**A.** 1.14

**Q.** With TTAGCCATAG as the sequence, how does the switch fluorescence ratio read?
**A.** 1.07

**Q.** Which switch fluorescence ratio does the source give for TTAGCCATTT here?
**A.** 1.03

**Q.** How did the switch fluorescence ratio turn out when TTAGCGATGC was run?
**A.** 3.14

**Q.** TTAGCGCATT was tested. Which switch fluorescence ratio did it give?
**A.** 1.11

**Q.** For TTAGCGCTTA, which switch fluorescence ratio is on record?
**A.** 1.03

**Q.** TTAGCTGATA was tested. Which switch fluorescence ratio did it give?
**A.** 1.01

**Q.** With TTAGCTGGGA as the sequence, how does the switch fluorescence ratio read?
**A.** 0.993

**Q.** For TTAGGAATAG, which switch fluorescence ratio is on record?
**A.** 1.03

**Q.** TTAGGCACCA was tested. Which switch fluorescence ratio did it give?
**A.** 1.01

**Q.** Which switch fluorescence ratio does the source give for TTAGGCCAAG here?
**A.** 1

**Q.** How did the switch fluorescence ratio turn out when TTAGGCCGCG was run?
**A.** 0.998

**Q.** Which switch fluorescence ratio does the source give for TTAGGGCCTC here?
**A.** 0.971

**Q.** How did the switch fluorescence ratio turn out when TTAGGTACTT was run?
**A.** 1.07

**Q.** Which switch fluorescence ratio does the source give for TTAGGTATAT here?
**A.** 1.04

**Q.** TTAGGTATGG was tested. Which switch fluorescence ratio did it give?
**A.** 0.989

**Q.** Which switch fluorescence ratio does the source give for TTAGGTCGAT here?
**A.** 1.01

**Q.** For TTAGGTGATA, which switch fluorescence ratio is on record?
**A.** 1.01

**Q.** For TTAGGTGTG, which switch fluorescence ratio is on record?
**A.** 0.977

**Q.** TTAGTAAACG was tested. Which switch fluorescence ratio did it give?
**A.** 0.956

**Q.** Which switch fluorescence ratio does the source give for TTAGTCATAA here?
**A.** 1.01

**Q.** For TTAGTCATAC, which switch fluorescence ratio is on record?
**A.** 1.1

**Q.** For TTAGTCTACG, which switch fluorescence ratio is on record?
**A.** 1.03

**Q.** Which switch fluorescence ratio does the source give for TTAGTGAACC here?
**A.** 1.04

**Q.** Which switch fluorescence ratio does the source give for TTAGTGCACG here?
**A.** 0.981

**Q.** How did the switch fluorescence ratio turn out when TTAGTGTAGG was run?
**A.** 1.17

**Q.** With TTAGTGTGGT as the sequence, how does the switch fluorescence ratio read?
**A.** 0.984

**Q.** TTAGTTATGG was tested. Which switch fluorescence ratio did it give?
**A.** 1.08

**Q.** TTAGTTTAGC was tested. Which switch fluorescence ratio did it give?
**A.** 0.908

**Q.** Which switch fluorescence ratio does the source give for TTATAAAGCA here?
**A.** 1.02

**Q.** How did the switch fluorescence ratio turn out when TTATAAGTCT was run?
**A.** 0.965

**Q.** For TTATAATGAG, which switch fluorescence ratio is on record?
**A.** 1.02

**Q.** Which switch fluorescence ratio does the source give for TTATACCGGC here?
**A.** 1.02

**Q.** For TTATACTACG, which switch fluorescence ratio is on record?
**A.** 1.05

**Q.** With TTATAGAGCA as the sequence, how does the switch fluorescence ratio read?
**A.** 0.961

**Q.** TTATAGCTGG was tested. Which switch fluorescence ratio did it give?
**A.** 0.973

**Q.** How did the switch fluorescence ratio turn out when TTATATACAT was run?
**A.** 0.997

**Q.** With TTATATAGAA as the sequence, how does the switch fluorescence ratio read?
**A.** 1.03

**Q.** With TTATATCTGG as the sequence, how does the switch fluorescence ratio read?
**A.** 1.05

**Q.** With TTATATTCTA as the sequence, how does the switch fluorescence ratio read?
**A.** 0.985

**Q.** How did the switch fluorescence ratio turn out when TTATCAGGTA was run?
**A.** 1.04

**Q.** How did the switch fluorescence ratio turn out when TTATCCAAG was run?
**A.** 0.981

**Q.** Which switch fluorescence ratio does the source give for TTATCCACCA here?
**A.** 1.07

**Q.** Which switch fluorescence ratio does the source give for TTATCCCGCT here?
**A.** 1.1

**Q.** How did the switch fluorescence ratio turn out when TTATCCCGTC was run?
**A.** 1.08

**Q.** TTATCCTCCC was tested. Which switch fluorescence ratio did it give?
**A.** 1.39

**Q.** Which switch fluorescence ratio does the source give for TTATCCTCTC here?
**A.** 1.03

**Q.** Which switch fluorescence ratio does the source give for TTATCCTTG here?
**A.** 1.06

**Q.** How did the switch fluorescence ratio turn out when TTATCGGTGC was run?
**A.** 1.02

**Q.** For TTATCGTTT, which switch fluorescence ratio is on record?
**A.** 0.953

**Q.** With TTATCTCCGT as the sequence, how does the switch fluorescence ratio read?
**A.** 1.21

**Q.** TTATCTCCTT was tested. Which switch fluorescence ratio did it give?
**A.** 1.06

**Q.** TTATCTGAAA was tested. Which switch fluorescence ratio did it give?
**A.** 0.979

**Q.** TTATCTGCGG was tested. Which switch fluorescence ratio did it give?
**A.** 1.05

**Q.** With TTATGAAAA as the sequence, how does the switch fluorescence ratio read?
**A.** 0.983

**Q.** TTATGAGGCC was tested. Which switch fluorescence ratio did it give?
**A.** 0.973

**Q.** TTATGATACT was tested. Which switch fluorescence ratio did it give?
**A.** 1.03

**Q.** For TTATGATTCG, which switch fluorescence ratio is on record?
**A.** 0.98

**Q.** For TTATGGAAGC, which switch fluorescence ratio is on record?
**A.** 1.01

**Q.** How did the switch fluorescence ratio turn out when TTATGGACCA was run?
**A.** 0.984

**Q.** For TTATGGCCG, which switch fluorescence ratio is on record?
**A.** 0.865

**Q.** Which switch fluorescence ratio does the source give for TTATGGGAGC here?
**A.** 1.02

**Q.** With TTATGGGCCG as the sequence, how does the switch fluorescence ratio read?
**A.** 0.978

**Q.** TTATGGTATG was tested. Which switch fluorescence ratio did it give?
**A.** 0.999

**Q.** With TTATGGTCCC as the sequence, how does the switch fluorescence ratio read?
**A.** 1.02

**Q.** TTATGTACCA was tested. Which switch fluorescence ratio did it give?
**A.** 1.08

**Q.** Which switch fluorescence ratio does the source give for TTATGTTAAC here?
**A.** 1.02

**Q.** TTATGTTGCG was tested. Which switch fluorescence ratio did it give?
**A.** 1.01
